Measurements reported in PubChem BioAssay AID686978 (National Center for Advancing Translational Sciences (NCATS), 2013).
Out of some 420,000 compounds screened, about 64,000 (15%) were called active. The shares of active, inactive and inconclusive entries below differ from those in the screen. Calls come from the whole dose curve; as a rule, active = well fitted inhibition curve with a large enough effect; inconclusive = small, poorly fitted or top-dose-only effect; inactive = flat fitted curve, though single readings scatter. Potencies of inconclusive entries are left out as doubtful fits.

assay: qHTS for Inhibitors of human tyrosyl-DNA phosphodiesterase 1 (TDP1): qHTS in cells in absence of CPT; details: DT40 Tdp1-/- hTDP1 cells, no CPT, ATP luminescence, 48 h; activity change, negative = growth inhibition: at 46.2 µM (top of the series) unless noted; note: nearly all actives have a fitted effect of over 55% in size
Procedure, shortened: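 A cellular qHTS used chicken DT40 cells lacking endogenous Tdp1 but carrying stably transfected human TDP1. Compounds were applied without camptothecin, and cell growth kinetics were judged by ATP-dependent luminescence after ≥48 hr.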
% is set by controls: 0 for no effect and ±100 for the full control effect; potency is the fitted concentration of half-maximal effect; tags give direction and shape of the fitted curve.

Structure (SMILES)	Potency	activity change, negative = growth inhibition
Cc1ccc2nc(-c3ccncc3)cc(C(=O)NCCc3ccc(F)cc3)c2c1	inconclusive [inhibitor, single point]	–
CC(C)C(=O)Nc1nnc(SCc2cc(=O)n3ccccc3n2)s1	inactive	–
CCOC(=O)c1ccc(N2C(=O)CC(Sc3ncccn3)C2=O)cc1 (stereo unspecified)	inconclusive [inhibitor, single point]	–
COC(=O)c1cc(NC(=O)CC2NC3CCCCC3NC2=O)cc(C(=O)OC)c1 (stereo unspecified)	inactive	–
CNS(=O)(=O)c1cnccc1N1CCN(c2cccc(Cl)c2)CC1	inconclusive [inhibitor, partial curve]	–
O=C(CNC(=O)c1ccc(Br)cc1)c1ccccc1	inactive	–
Clc1ccc(/C=C/c2nc3ccccc3[nH]2)c(Cl)c1	active: 18.4 µM	–
C/C(=N\NC(=O)c1nnn(-c2nonc2N)c1CSc1ccc(C)cc1)c1cccs1	–	inconclusive: -34.8% [inhibitor]
C[C@@H]1COC(=O)[C@H](NC(=O)OCC2c3ccccc3-c3ccccc32)C/C=C\C[C@@H](CC(=O)N(CCO)Cc2ccccc2)C(=O)N1	active: 14.6 µM	–
O=C(Nc1ccccc1)C1=C(Nc2ccccc2)CSC1	inactive	–
COC(=O)c1ccc(Nc2nc(C)nc3c2nnn3Cc2ccccc2)cc1	inactive	–
CCCCc1ccc(NC(=O)CSCc2cc(=O)[nH][nH]2)cc1	inactive	–
C[C@H]1CN([C@@H](C)CO)S(=O)(=O)c2ccc(Br)cc2O[C@@H]1CN(C)C(=O)CCN1CCCCC1	inactive	–
CC(=O)Nc1ccc(-c2ccnc3c2CC(C)(C(=O)NC(C)C)O3)cc1 (stereo unspecified)	inactive	–
Cc1cc(C)c(NC(=O)C[N+](C)(C)CC(O)COc2cccc3ccccc23)c(C)c1 (stereo unspecified)	active: 18.4 µM	–
COc1ccc(Cl)cc1S(=O)(=O)N1CCC(C(=O)N2CCOCC2)CC1	inactive	–
CCOC(=O)Cc1csc(NC(=O)c2ccc(Br)o2)n1	–	inconclusive: -33.9% [inhibitor]
O=C(Nc1ccccc1SCC1CSc2nc3ccccc3c(=O)n21)c1ccccc1Cl (stereo unspecified)	inconclusive [inhibitor, partial curve]	–
CCn1c(=O)c2sccc2n2c(CCC(=O)Nc3ccc(C(C)C)cc3)nnc12	active: 23.1 µM	–
CCOC(=O)c1cc2c(C)n(-c3ccc(N(C)C)cc3)c(C)c2cc(C(=O)OCC)c1=O	inconclusive [inhibitor, full curve, poor fit]	–
Cc1ccccc1Cn1c(C)c(C(=O)NCc2ccc(Cl)c(Cl)c2)sc1=O	inconclusive [inhibitor, single point]	–
Cc1cccn2cc(-c3cccc(S(=O)(=O)N4CC(C)OC(C)C4)c3)nc12 (stereo unspecified)	inconclusive [inhibitor, single point]	–
Cc1cccc(CNC(=O)c2sc(=O)n(Cc3ccccc3C)c2C)c1	inconclusive [inhibitor, partial curve]	–
COc1ccc(Cc2nc3ccc(C(=O)N(C)Cc4nccs4)cc3o2)cc1OC	inconclusive [inhibitor, partial curve]	–
CCOC(=O)c1cnc2c(OC)cccc2c1N1CC(C)CC(C)C1 (stereo unspecified)	active: 7.31 µM	–
CN(Cc1ccc(F)cc1)C(=O)c1cc(S(=O)(=O)N2CCCCC2)ccc1N1CCOCC1	active: 16.4 µM	–

Structure (SMILES)	Potency	activity change, negative = growth inhibition
Cc1cccc(NC(=S)N(CCCN2CCCC2)Cc2cccn2Cc2ccc(Cl)cc2)c1	active: 16.4 µM	–
COc1cc(/C=N/N2C(=O)CSC2=S)cc(Br)c1O	inactive	–
CCc1ccccc1NC(=O)CC1SCCNC1=O (stereo unspecified)	inactive	–
CCN(CC)S(=O)(=O)c1ccc(Cl)c(NC(=O)COc2ccc(OC)cc2)c1	inactive	–
CCc1nnc(SC(CC)C(=O)Nc2cc(C)ccc2C)c2cc3occc3n12 (stereo unspecified)	active: 14.6 µM	–
Cc1cccc(N2CCN(C(=S)Nc3ccc4nc(N5CCN(C)CC5)cc(C)c4c3)CC2)c1C	active: 1.03 µM	–
COc1ccc(-c2cc(=O)c3ccccc3s2)cc1	inconclusive [inhibitor, partial curve]	–
Cc1c(Cl)c([N+](=O)[O-])nn1CC(=O)NC(C)C1CC2CCC1C2 (stereo unspecified)	–	inconclusive: -30.3% [inhibitor]
CCOc1ccccc1N1CCN(C(=O)COc2ccc3c(C)cc(=O)oc3c2)CC1	inconclusive [inhibitor, single point]	–
O=C(NCC1CCCO1)C(c1cccs1)N(C(=O)c1ccc(-c2ccccc2)[nH]1)C1CCCC1 (stereo unspecified)	inconclusive [inhibitor, single point]	–
Cc1cc(C)c(S(=O)(=O)N(C2=NCCS2)S(=O)(=O)c2c(C)cc(C)cc2C)c(C)c1	inconclusive [inhibitor, single point]	–
COc1ccc(OCC(=O)NC(Cc2c[nH]c3ccccc23)C(=O)O)cc1 (stereo unspecified)	inactive	–
COc1cccc(/C=C2\SC(=S)N(CC3CCCO3)C2=O)c1 (stereo unspecified)	inactive	–
CS(=O)(=O)N(CC(=O)NCCSCc1cccc(Cl)c1)c1ccc2c(c1)OCO2	–	inconclusive: -31.1% [inhibitor]
O=C(Cn1cnc2c(nnn2Cc2ccc(Cl)cc2)c1=O)c1ccccc1	–	inconclusive: -31.5% [inhibitor]
Cc1cc(Nc2ccc(Cl)cc2)n(-c2cccc(Cl)c2)n1	inconclusive [inhibitor, single point]	–
Cc1ccc(-c2cc(C(=O)n3cnc4ccccc43)c3ccccc3n2)cc1C	inconclusive [inhibitor, partial curve]	–
CCc1cccc(N(C(=O)c2csnn2)C(C(=O)NC2CCCC2)c2cccnc2)c1 (stereo unspecified)	inactive	–
CC(=O)Nc1cccc(C(=O)OCc2csc(CC(=O)Nc3ccccc3C)n2)c1	inactive	–
CCc1nc2c(OCc3ccc4c(c3)OCO4)cccn2c1N(C=O)Cc1ccc(OC)cc1	inconclusive [inhibitor, single point]	–
CC1(C)C2CCC1(C)C(OC(=O)C[n+]1ccccc1)C2 (stereo unspecified)	inconclusive [inhibitor, single point]	–
COc1ccc(C(=O)Oc2ccc(C(=S)N3CCOCC3)cc2)cc1	inconclusive [inhibitor, single point]	–
CCCNC(=O)C1(C)CCN(Cc2csc(-c3ccc(Cl)cc3)n2)C1 (stereo unspecified)	active: 16.4 µM	–
COCc1cc(C)nc2sc(C(=O)NC3CCCCC3)c(N)c12	inconclusive [inhibitor, partial curve]	–
Cc1ccc2c(c1)N(C(=O)CCC(=O)N1CCN(c3ccccn3)CC1)CCO2	inactive	–
COc1ccc2oc(C(=O)Nc3nnc(C)s3)c(C)c2c1	inactive	–

Structure (SMILES)	Potency	activity change, negative = growth inhibition
CCOC(=O)CN(C)Cc1cn[nH]c1-c1ccc2cc(OC)ccc2c1	active: 13 µM	–
CCOc1cc(N2CCOCC2)c(OCC)cc1NC(=O)CSc1nnc(N)s1	inconclusive [inhibitor, single point]	–
c1cncc(-c2nccc(-n3ccnc3)n2)c1	inactive	–
CC(C)C(=O)Nc1ncc(Cc2cccc(Cl)c2)s1	inconclusive [inhibitor, single point]	–
O=C(CCc1ccccc1)NNC(=O)Nc1ccc(F)c(Cl)c1	inactive	–
CC(=O)N1CC(C)Sc2ccc(S(=O)(=O)NCc3ccc(Cl)cc3)cc21 (stereo unspecified)	inconclusive [inhibitor, single point]	–
CC1(C)CC(=O)C2=C(C1)N(CCN1CCOCC1)C1=C(C(=O)CC(C)(C)C1)C2c1cccc(F)c1	inactive	–
COc1ccccc1NC(=O)[C@H](COCc1ccccc1)NC(=O)OC(C)(C)C	active: 18.4 µM	–
C/C(=N\Nc1nc(-c2cc(C)ccc2C)cs1)c1cc2c(ccc3ccccc32)oc1=O	active: 16.4 µM	–
CCOC(=O)c1ccc(-c2ccc(C3Nc4ccccc4C(=O)N3O)o2)cc1 (stereo unspecified)	inconclusive [inhibitor, single point]	–
CCn1c(O)c2ccc(C(=O)N=NC(=O)c3cccnc3)cc2c1O	inactive	–
O=C(Nc1nccs1)c1ccc(-c2ccccc2Cl)o1	inconclusive [inhibitor, single point]	–
CNc1cncc(-c2cc(OC)c(OC)c(OC)c2)n1	inconclusive [inhibitor, single point]	–
S=c1[nH]ccc2ccccc12	inactive	–
CN(C1CCCCC1)S(=O)(=O)c1cccc(C#N)c1	inconclusive [inhibitor, single point]	–
CSc1nc(NNC=O)cc(Oc2ccc(NC(C)=O)cc2)n1	inactive	–
C/C(=N\S(=O)(=O)c1ccc(C)cc1)Nc1cc(C(C)C)c(O)cc1C	inconclusive [inhibitor, single point]	–
CN(C)CCc1c[nH]c2ccc(CS(=O)(=O)N3CCCC3)cc12	inactive	–
CN1CCN(CC(O)COC(c2ccc(Cl)cc2)c2ccc(Cl)cc2)CC1 (stereo unspecified)	inconclusive [inhibitor, single point]	–
O=C1NC(Cc2ccccc2)c2nc3ccc(F)cc3c(=O)n2-c2ncccc21 (stereo unspecified)	active: 20.6 µM	–
CCN(C[C@H]1N[C@@](CC)(C(=O)OC)[C@H]2C(=O)N(Cc3ccccc3)C(=O)[C@@H]12)S(=O)(=O)c1ccc(F)cc1	active: 20.6 µM	–
COc1ccc(-c2nn(-c3ccccc3C)cc2CNC(C)Cn2cncn2)cc1F (stereo unspecified)	inconclusive [inhibitor, partial curve, poor fit]	–
CC(C)C(=O)c1cc2c(cc1NC(=O)c1cccs1)OCCO2	inconclusive [inhibitor, single point]	–
COc1ccccc1CN(C)C(=O)CN1CCN(C(=O)c2cccs2)CC1	inconclusive [inhibitor, single point]	–
